From paper PMC4336329 (PLoS ONE, 2015)
The whole screen tested about 310,000 compounds, of which about 14,000 (4.5%) showed an effect of 50% or more. Effects have a minus sign here. This is one part of the list.

biological target: human ether-à-go-go-related gene (hERG) potassium channel (human, UniProt Q12809); assay: primary screen, population patch clamp on CHO cells stably expressing hERG
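Also: peak tail current of the secondary pulse compared with the same well before compound.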

Chain of human ether-à-go-go-related gene (hERG) potassium channel (Q12809 whole entry, looked up): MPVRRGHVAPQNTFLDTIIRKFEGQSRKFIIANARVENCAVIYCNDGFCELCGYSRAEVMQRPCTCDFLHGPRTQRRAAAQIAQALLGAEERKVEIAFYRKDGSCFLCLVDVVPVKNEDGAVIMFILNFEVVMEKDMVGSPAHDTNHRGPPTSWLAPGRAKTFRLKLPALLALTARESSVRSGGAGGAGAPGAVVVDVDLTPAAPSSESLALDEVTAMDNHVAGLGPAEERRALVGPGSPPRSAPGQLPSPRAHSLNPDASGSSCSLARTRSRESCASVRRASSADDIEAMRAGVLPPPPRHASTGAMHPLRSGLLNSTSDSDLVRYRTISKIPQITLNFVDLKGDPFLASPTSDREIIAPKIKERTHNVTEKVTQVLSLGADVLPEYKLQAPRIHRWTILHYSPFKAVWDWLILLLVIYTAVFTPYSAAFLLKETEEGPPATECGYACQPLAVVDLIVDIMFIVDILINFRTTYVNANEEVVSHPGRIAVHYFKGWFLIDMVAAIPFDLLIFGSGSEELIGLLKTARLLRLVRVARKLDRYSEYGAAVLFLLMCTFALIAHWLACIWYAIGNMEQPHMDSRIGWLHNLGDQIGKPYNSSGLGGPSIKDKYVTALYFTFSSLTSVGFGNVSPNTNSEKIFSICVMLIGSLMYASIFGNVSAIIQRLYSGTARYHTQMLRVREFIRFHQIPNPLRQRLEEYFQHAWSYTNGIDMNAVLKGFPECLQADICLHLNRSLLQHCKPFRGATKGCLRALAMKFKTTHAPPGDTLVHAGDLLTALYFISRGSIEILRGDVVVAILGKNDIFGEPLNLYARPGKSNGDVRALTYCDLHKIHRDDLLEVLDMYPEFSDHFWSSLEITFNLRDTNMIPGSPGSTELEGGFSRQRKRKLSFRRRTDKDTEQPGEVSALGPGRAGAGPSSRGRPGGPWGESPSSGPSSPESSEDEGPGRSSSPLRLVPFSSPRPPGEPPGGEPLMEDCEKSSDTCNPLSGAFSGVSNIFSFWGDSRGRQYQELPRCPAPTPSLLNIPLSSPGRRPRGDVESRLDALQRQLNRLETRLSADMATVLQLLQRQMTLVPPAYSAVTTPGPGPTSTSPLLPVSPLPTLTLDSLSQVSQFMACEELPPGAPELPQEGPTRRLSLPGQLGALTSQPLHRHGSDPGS

SMILES | hERG current change (%, negative = inhibition) at 10uM [%]
Cc1ccc(-n2ncc3c(SCC(=O)Nc4cc(C)on4)ncnc32)c(C)c1 | 17.9
O=C(/C=C/c1ccccc1Cl)NNC(=O)c1ccncc1 | -11.4
O=C(Nc1nnc(SCc2ccccc2Cl)s1)c1cccc([N+](=O)[O-])c1 | -3.26
CC(=O)Nc1ccc(SC[C@H](CC(C)C)N2CCN(CC(C)C)CCC2=O)cc1 | -28.1
COc1ccc(C(=O)N/C(=C\c2ccc3c(c2)OCO3)C(=O)Nc2ccc(C(=O)O)cc2)cc1 | 17.8
COc1ccccc1NC(=O)c1cc(S(=O)(=O)NCc2ccccc2)ccc1F | 20
COc1ccc(C(C)=O)cc1CC(C(=O)c1ccc(Br)cc1)N(C)C (stereo not drawn) | -7.82
Cc1cc(NS(=O)(=O)c2ccc(NC(=O)c3ccc(Cl)cc3[N+](=O)[O-])cc2)no1 | 21.2
N#C/C=C/C#N | 9.42
CCC(/C=N/NC(=O)C(=O)N/N=C/C(CC)CC)CC | 9.86
O=C(Cn1c(=O)oc2ccccc21)Nc1ccc(F)c(F)c1 | 16.6
Cc1ccc2cc(CCNC(=O)C(C)C)c(=O)[nH]c2c1C | 11.9
CC1SC(C)C(=O)N(CC(=O)Nc2ccc3c(c2)OCO3)C1=O (stereo not drawn) | 10.3
CC(C)(C)NS(=O)(=O)c1ccc(CCC(=O)NCc2ccco2)cc1 | 2.7
COc1cccc(CC(=O)Nc2nccs2)c1 | 0.299
O=C(COc1ccc([N+](=O)[O-])cc1)N(Cc1ccccc1)Cc1ccccc1 | -41.5
Cc1nc(C)c(C(=O)O)c(-c2cccs2)c1C(=O)O | -1.36
Cc1ccc(C)n1-c1ccc(C(=O)NCc2ccncc2)cc1 | -4.4
CC/C(=C\c1oc2cc3ccccc3cc2[n+]1CC)Nc1ccccc1.[I-] | -78.1
CN1CCN2c3ncccc3Cc3ccccc3[C@@H]2C1 | -0.0533
Cc1occc1-c1nnc(SCC(=O)c2ccccc2)n1CC1CCCO1 (stereo not drawn) | -8.58
CCOc1ccccc1NC(=O)CNC(=O)c1nn(-c2ccc(OC)c(OC)c2)c(=O)c2ccccc12 | -2.11

SMILES | hERG current change (%, negative = inhibition) at 10uM [%]
CCOC(=O)Nc1nc(-c2ccc(F)cc2F)cs1 | 5.99
COc1ccc(CCN2CC(C(=O)NCCc3ccccn3)CCC2=O)cc1 (stereo not drawn) | -1.14
COc1ccc(C)cc1NC(=O)C1CCCN(S(=O)(=O)c2cccnc2)C1 (stereo not drawn) | 4.23
CCCNS(=O)(=O)c1ccc(OCC(=O)Nc2ccc3c(c2)OCCO3)c(C)c1 | -7.32
Cc1ccc(C(C)C)cc1OCCn1cncn1 | 3.69
CCCN(CCC)S(=O)(=O)c1cc(Br)cc2c1N(C(=O)CC)CC2 | -2.75
O=C1CCCc2oc3c(c21)CCCC3 | -3.83
O=C(COC(=O)C1=COCCO1)NCCCc1ccccc1 | 10.4
CC(=O)c1cccc(NC(=O)CN(c2ccccc2)S(C)(=O)=O)c1 | -19.8
CCc1cccc(CC)c1NC(=O)COC(=O)c1ccc2c(c1)S(=O)(=O)c1ccccc1C2=O | 1.76
COc1ccc(C(=O)N2CCOC2CNC(=O)C(=O)NCc2ccco2)cc1 (stereo not drawn) | -1.34
Brc1ccc(-n2c(SCc3nc4ccccc4[nH]3)nnc2-c2ccncc2)cc1 | -13.6
Cc1ccc(-c2nc3ccccc3c(=O)n2-c2nccs2)cc1 | 4.82
Cc1nonc1CN(C)C(=O)CC1C(=O)NCCN1Cc1ccccc1C(F)(F)F (stereo not drawn) | 8.07
Cc1ccc(NC(=O)CCNC(=O)c2ccc(Br)cc2)cc1S(=O)(=O)N1CCCCCC1 | -25
CC(=O)Nc1cccc(OCCCNC(=O)c2ccc(F)cc2)c1 | -3.33
COc1ccc(C(O)(C(C)C)C(CN2CCOCC2)c2ccc(Cl)cc2)cc1.Cl (stereo not drawn) | 4.99
Cc1ccc(NC(=O)CN(C)c2ccc(S(=O)(=O)N3CCCC3)cn2)cc1 | -2.1
Cc1ccc(-c2cn3c(=O)cc(C)[nH]c3n2)cc1 | 7.89
CCOC(=O)c1cnc2cc(-c3ccc(Cl)cc3)nn2c1N | 8.48
Cc1nn(CC(=O)NCCCN2CCC(N3CCCCC3)CC2)c(=O)c2cc(-c3ccccc3)nn12 | -23.3
COc1ccc(CNC(=O)C(=O)NCCC2CCCCN2S(=O)(=O)c2ccccc2)cc1 (stereo not drawn) | -15.2

SMILES | hERG current change (%, negative = inhibition) at 10uM [%]
O=C(NC1CC1)C1=C[C@H](c2coc3ccccc3c2=O)C[C@H](OCc2ccc(CO)cc2)O1 | -20.7
Cc1nc2ccc(-c3ccccc3)cc2o1 | -17.1
Cc1ccc(-n2cnc3ncnc(-c4ccccc4)c32)cc1 | -6.83
COc1cc(/C=N/N(C)S(=O)(=O)c2ccc(C)cc2)cc([N+](=O)[O-])c1O | 1.54
Cc1ccc(S(=O)(=O)Cc2ccc(C(=O)NCCCN3CCN(C)CC3)o2)cc1 | 15.6
COc1cc(CCCN2CCNC[C@@H]2Cc2ccc(O)cc2)cc(OC)c1OC | 2.42
COc1ccc(NC(=O)CN2CCN(c3nc(-c4ccc(F)cc4)cs3)CC2)c(OC)c1 | 20.7
O=C(NC1CCCCCC1)C1CCCN(S(=O)(=O)c2cccs2)C1 (stereo not drawn) | 11.1
COc1ccc(Nc2nc(N)nc(COc3ccc(OC)cc3)n2)cc1 | 4.75
O=C(CCC(=O)OCC(=O)c1ccc(Br)cc1)Nc1cccc2cccnc12 | -1.66
COc1ccc(S(=O)(=O)N(CC(=O)Nc2ccccc2C(=O)N2CCOCC2)c2ccc(F)cc2)cc1 | -57
O=C(Nc1c2n(c(=S)n(-c3ccccc3)c1=O)CCCCC2)c1ccccc1 | -20.9
CCn1c(SCC(=O)NC2CCCCC2)nnc1-c1ccco1 | -6.51
O=C(COC(=O)c1ccc([N+](=O)[O-])s1)NCCc1ccccc1 | -13.5
COc1cccc(N2CCN(CC(=O)c3c[nH]c4ccc(OC)cc34)CC2C)c1 (stereo not drawn) | -29.5
O=C(NC(=O)N1CCSCC1)c1c(Cl)cccc1Cl | 14.1
CN(C)C(=O)c1c([N+](=O)[O-])ncn1C | 10.9
COc1ccc(NC(=O)CSc2nccn2Cc2ccc(F)cc2)cc1 | -25.1
CCOC(=O)C(NC(=O)Nc1ccccc1)(OCC)C(F)(F)F (stereo not drawn) | 1.14
CC(=O)/C(C#N)=C1\NC(=O)C(Cc2ccccc2C)S1 (stereo not drawn) | 13.1
CCS(=O)(=O)c1cc([N+](=O)[O-])c(Sc2ccccc2NC(C)=O)s1 | 8.29
Cl.O=C(c1ccco1)N1CCN(C(c2ccccc2F)c2nnnn2CC2CCCO2)CC1 (stereo not drawn) | -17.2

SMILES | hERG current change (%, negative = inhibition) at 10uM [%]
CCCN1CNC(=S)N(CCc2ccccc2)C1 | 8.83
O=S(=O)(c1ccccc1)c1nc(Nc2ccccc2N2CCOCC2)sc1Cl | -30.6
COc1ccc(C(C(=O)NCc2ccccc2)N(Cc2ccco2)C(=O)c2snc(C(N)=O)c2N)cc1OC (stereo not drawn) | 14.5
Cc1cc(C)nc(NS(=O)(=O)c2ccc(NC(=O)C3CC(=O)N(c4ccccc4)C3)cc2)n1 (stereo not drawn) | -3.24
Cc1ccc2sc(NC(=O)c3ccc(N4C(=O)CCC4=O)cc3)nc2c1C | 15.7
Cc1ccc(NC(=O)c2sccc2-n2cccc2)c(C)c1 | 9.73
Cc1ccc(C(=O)N/N=C\c2ccc(-c3ccc([N+](=O)[O-])cc3)o2)cn1 | -9.46
COc1ccc(C/C(N)=N/OC(=O)CCc2ccccc2)cc1 | 14.9
CCCC(=O)Nc1nnc(SCC(=O)N2C(C)CCCC2C)s1 (stereo not drawn) | -50.1
COc1ccccc1CNC(=O)CNC(=O)c1cn(-c2ccccc2OC)c(=O)c2ccccc12 | -24.6
Cc1ccc(S(=O)(=O)N2CCC3(CC2)CC(=O)c2ccccc2O3)cc1 | -25.7
Oc1ccc(/C=N/Nc2nc(N3CCCC3)nc(N3CCCC3)n2)cc1O | 2.71
CCOc1ccc2nc(NC(=O)c3cnc(C)cn3)sc2c1 | -6.77
CC(=O)c1cccc(N2C(=NC(=O)C3CCCCC3)SC3CS(=O)(=O)CC32)c1 (stereo not drawn) | -32.6
O=C(CNc1cccc(S(=O)(=O)N2CCCC2)c1)Nc1ccc(C(F)(F)F)cc1 | 15.1
CCCN1CCC(=O)N([C@H](CO)Cc2ccccc2)CC1 | 0.476
O=C(NNC(=S)NC1CCCCC1)c1ccccc1O | 15.2
Cc1ccc(/C=N/OC(=O)c2c(C)noc2-c2snnc2C)cc1 | 9.54
CCOCCn1c(SC)nc2c1c(=O)[nH]c(=O)n2C | 9.71
CSc1nnc(N2C(=O)C(O)=C(C(=O)c3ccco3)C2c2ccc(F)cc2)s1 (stereo not drawn) | 10.7
O=C(O)c1cccc(Cn2c(Cl)c(/C=N/NC(=O)c3ccccc3)sc2=O)c1 | 17
